# According to PubChem BioAssay AID485344 (National Center for Advancing Translational Sciences (NCATS), 2010):
# Screen size: about 340,000 compounds; about 6,900 (2%) were called active. No stated cut-off is given here; in the data, active means inhibition above about 30%; inactive means below that, where a call was filed. The list shows a part of the results, in another mix than the full data. Entries without a call were filed so in the source.
# Biological target: D(2) dopamine receptor (Homo sapiens) (UniProt P14416)
# Experiment: HTS Assay for Allosteric Antagonists of the Human D2 Dopamine Receptor: Primary Screen for Antagonists; further: 0% is about no effect
# Settings: HEK293 TREx D2 cells, calcium flux, dopamine EC80; at 10 µM; stronger effect = higher value
# Summary of the method: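 Antagonism is scored as inhibition of an EC80 dopamine-evoked calcium signal in a force-coupled, tetracycline-inducible HEK293 T-REx D2 line, with compound present 180 s before agonist.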
# UniProt P14416, sequence (P14416 whole entry, looked up): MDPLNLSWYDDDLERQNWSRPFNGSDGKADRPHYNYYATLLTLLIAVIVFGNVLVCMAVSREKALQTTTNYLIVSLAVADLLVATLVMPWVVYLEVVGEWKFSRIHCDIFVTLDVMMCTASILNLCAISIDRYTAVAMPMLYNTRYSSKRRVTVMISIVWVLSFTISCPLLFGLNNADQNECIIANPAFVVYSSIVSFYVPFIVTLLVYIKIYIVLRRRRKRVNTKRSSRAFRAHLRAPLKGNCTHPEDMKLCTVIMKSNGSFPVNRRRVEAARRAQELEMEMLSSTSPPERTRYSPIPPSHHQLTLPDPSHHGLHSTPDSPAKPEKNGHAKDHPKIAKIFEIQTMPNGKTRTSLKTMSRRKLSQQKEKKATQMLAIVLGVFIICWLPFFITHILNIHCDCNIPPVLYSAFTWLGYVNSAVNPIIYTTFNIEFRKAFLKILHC
row,SMILES,inhibition
1,CC(=O)c1cccc(NC(=O)c2sc(-n3nc(C)c(Cc4ccccc4)c3C)nc2C)c1,4.38%
2,Cc1ccc2nc(COc3cccc(NC(=O)Nc4ccc(C)c(Cl)c4)c3)cc(=O)n2c1,8.1%
3,COCCNC(=O)c1ccc2c(c1)N(Cc1cc(C)ccc1C)C(=O)c1ccccc1S2=O (configuration not stated),11.7%
4,O=C(Cn1c(SCc2ccc(F)cc2)nc2cccnc21)Nc1ccccc1F,12.1%
5,COc1cccc(-c2cc(C(=O)NCCc3ccc(OC)c(OC)c3)no2)c1,-4.16%
6,OCCC1CN(Cc2cccc(OC3CCCC3)c2)CCN1Cc1ccsc1 (configuration not stated),active: 65.5%
7,Cc1ccc(-n2nc3c(=O)n(C(C)C(=O)NCc4ccc(OC(C)C)cc4)nc(C)c3c2C)cc1 (configuration not stated),-0.872%
8,CC(=O)c1ccc(NC(=O)CSC2=Nc3ccccc3N=C(c3ccc(F)cc3)C2)cc1,7.57%
9,CC(C)Cn1cc(NC(=O)N2CCN(c3ccc(F)cc3)CC2)c2ccccc2c1=O,0.512%
10,COc1cc(OC)cc(-c2nc3nc(C)c(CCC(=O)Nc4cc(C)cc(C)c4)c(C)n3n2)c1,-6.68%
11,CCCCn1c(=O)n(CC2CCC(C(=O)NCCCOC)CC2)c(=O)c2sccc21 (configuration not stated),4.96%
12,O=C(NCc1ccc(Cl)cc1)C1CCN(S(=O)(=O)c2cccc3nonc23)CC1,15.6%
13,CCC(Cc1ccccc1)NC(=O)Cn1nc(C)n2c(cc3occc32)c1=O (configuration not stated),-1.25%
14,CCOc1ccc2nc(NC(=O)c3nc(SCc4ccccc4F)ncc3Cl)sc2c1,4.43%
15,Cc1cc(C)cc(-n2c(SCC(=O)Nc3ccccc3)nc3c(oc4ccccc43)c2=O)c1,-1.27%
16,CC(CCc1ccccc1)NCc1ccc(Cl)cc1Cl (configuration not stated),active: 45%
17,CCC(C)NCCCOc1cc(Cl)ccc1Cl (configuration not stated),active: 80%
18,Cc1ccc(NC(=O)C2CCCN(c3ncnc4c3nc3n4CCCCC3)C2)c(Br)c1 (configuration not stated),0.74%
19,CCn1c(=O)c2cc(C(=O)NCc3cc(OC)ccc3OC)sc2c2ccccc21,-19.7%
20,CCN1CCN(c2csc3ccc(Br)cc3c2=O)CC1,-13.3%
21,COc1ccc(NC(=O)C2CCCN(S(=O)(=O)c3c(C)[nH]c(=O)[nH]c3=O)C2)cc1OC (configuration not stated),10.1%
22,CC(C)(C)c1ccc(C(=O)NCC(=O)OCc2cc(=O)n3nc(C4CC4)sc3n2)cc1,14.9%
23,COc1ccc(Cl)cc1NCc1nnc2n1CCCCC2,-5.71%
24,COc1ccc(NC(=O)c2oc3ccccc3c2NC(=O)c2cc(=O)c3cc(Cl)ccc3o2)cc1,-10.1%
25,COc1ccc(CC(C)NS(=O)(=O)c2ccc3c(c2)CCN3S(C)(=O)=O)cc1OC (configuration not stated),-15.1%
26,COC(=O)c1c(NC(=O)c2ccc(OC)cc2OC)sc2c1CCCCC2,0.131%
27,COc1ccc2[nH]c3c(c2c1)CCN(C(=O)CCC1CCCC1)C3c1ccc(F)cc1 (configuration not stated),6.95%
